Hit rate of the full screen: of about 360,000 compounds, about 6,000 (1.7%) were called active. This list was built around the results that the source calls inconclusive (neither active nor inactive); the mix of calls is not that of the screen. Calls come from the whole dose curve; as a rule, active = well fitted cell-killing curve with a large enough effect; inconclusive = small, poorly fitted or top-dose-only effect, or effect the other way; inactive = flat fitted curve, though single readings scatter. Potencies of inconclusive entries are left out as doubtful fits.
Assay: qHTS for induction of synthetic lethality in tumor cells producing 2HG: qHTS for the HT-1080-NT fibrosarcoma cell line;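 note: NT is the 2HG producing partner of a matched IDH1 knockdown line; nearly all actives have a fitted effect of over 55% in size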;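 for activity, negative = less viability: 0% = DMSO-treated cells and -100% = media-only wells without cells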
Conditions: HT-1080-NT fibrosarcoma viability, CellTiter-Glo ATP luminescence, 48 h; activity, negative = less viability: at 46.1 µM (top of the series) unless noted
In short: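 Luminescent CellTiter-Glo readout after 48 hours of compound exposure at 37 degrees C defined viability of HT-1080-NT cells. Activity was normalized to DMSO wells and cell-free media wells; concentration-response curves were fitted and assigned curve classes.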
Potency is the fitted concentration of half-maximal effect; tags give direction and shape of the fitted curve.

SMILES | Potency | activity, negative = less viability
COc1ccc(Cl)cc1-c1cc(C(=O)N[C@H](C)c2ccccc2)[nH]n1 | inconclusive [rising, full curve] | –
C[C@@H](CN=[N+]=[N-])CN1CC[C@H](C(C)(C)C)CCC1=O | inactive | –
CC(C)COc1ccc(C(=O)Nc2ccc(NC(=O)c3ccco3)c(Cl)c2)cc1 | inconclusive [cytotoxic, single point] | –
C/C(O)=C(/C=Nc1ccccc1)C(=O)Nc1ccccc1 | inactive | –
CCN(CC(=O)NCc1ccc(Cl)cc1)C(=O)c1cc2ccccc2o1 | inactive | –
Cc1nn(-c2ccccc2)c(N)c1Sc1cccc([N+](=O)[O-])c1 | inconclusive [cytotoxic, single point] | –
CN(C)C(=S)N=c1ssc(=S)n1Cc1ccco1 | – | inconclusive: -12.6% [cytotoxic]
COc1cc(C#N)ccc1OCC(=O)Nc1cccc(S(=O)(=O)N(C)c2ccccc2)c1 | inactive | –
O=C1CC(Sc2nnnn2-c2ccccc2)C(=O)N1c1cccc(Cl)c1 (configuration not stated) | inconclusive [cytotoxic, single point] | –
Cc1noc(C)c1COc1ccc(CC(=O)NCc2ccccc2)cc1 | inconclusive [cytotoxic, full curve] | –
Cc1ccc(C(C)(C)C)c(OCCOCCN2CCCC2)c1 | inactive | –
COc1ccccc1NC(=O)Nc1nnc(Cc2ccc(F)cc2)s1 | inconclusive [cytotoxic, partial curve] | –
CCn1c2c(c(=N)c3c1CCC3)CCC2 | inactive | –
CN(CC(=O)Nc1cccc(S(=O)(=O)N2CCCC2)c1)CC(=O)Nc1ccc(Cl)c(C(F)(F)F)c1 | active: 9.2 µM | –
O=C(O)c1cc(S(=O)(=O)N2CCCc3ccccc32)ccc1Cl | inactive | –
Cc1nnc(NC(=O)CCn2c(=O)oc3ccc(Cl)cc32)s1 | – | inconclusive: 15.4%
O=C(CSc1ncnc2c1oc1ccccc12)Nc1nc2ccccc2s1 | inconclusive [cytotoxic, single point] | –
Cn1cccc1-c1cc(C(=O)N/N=C/c2ccc(Cl)cc2)[nH]n1 | inconclusive [cytotoxic, single point] | –
COCCNc1nc(-c2ccccc2CO)c2sc(-c3ccccc3)cc2n1 | inconclusive [cytotoxic, full curve] | –
COc1ccc(NC(=O)c2cc3c(Cl)nc4ccccc4c3s2)cc1OC | inconclusive [cytotoxic, single point] | –
CC1Oc2ccccc2C=C1/C=N/NC(=O)c1ccccc1O (configuration not stated) | inconclusive [cytotoxic, single point] | –
CC(C)(C)c1ccc(/C=C/C(=O)Nc2ccncc2)cc1 | inconclusive [cytotoxic, single point] | –
O=c1c2cn(Cc3ccc(F)cc3)c3ccc(F)cc3c-2nn1Cc1ccc(F)cc1 | inactive | –
CC(=O)Nc1cc2cc(NS(=O)(=O)c3ccc(C)cc3)ccc2oc1=O | inactive | –

SMILES | Potency | activity, negative = less viability
Fc1ccc(-n2c(Cc3ccccc3)nnc2SCc2nc(-c3cccs3)no2)cc1 | inconclusive [cytotoxic, single point] | –
COc1ccc(/C=N/NC(=O)c2ccc(O)cc2)cc1CN1CCCc2ccccc21 | inconclusive [cytotoxic, single point] | –
CC(C)N1CCN(Cc2ccc3c(c2)Cc2ccccc2-3)CC1CCO (configuration not stated) | inconclusive [cytotoxic, single point] | –
CCC(C)NCCOCCOc1ccc(Cl)cc1Br (configuration not stated) | active: 20.6 µM | –
Cc1ccc(S(=O)(=O)Nc2ccccc2O)cc1 | inactive | –
CCn1ccc(C(=O)NC2=NCCS2)n1 | inactive | –
CCN(CC)CCNC(=O)CS(=O)Cc1nc(-c2ccc(Cl)cc2)oc1C (configuration not stated) | inconclusive [cytotoxic, single point] | –
O=C1CC(N2CCC(c3nc4ccccc4o3)CC2)C(=O)N1c1ccc(Cl)c(C(F)(F)F)c1 (configuration not stated) | inconclusive [cytotoxic, single point] | –
C/C(=N\NC(=O)c1ccncc1)c1cccc(NC(=O)c2ccc(C(C)(C)C)cc2)c1 | inconclusive [cytotoxic, single point] | –
O=C1CCC[C@@H]2[C@H](Cc3ccccc3)[C@@H](O)C[C@@H]3CCN1[C@@H]32 | inactive | –
Cc1ccc(N2CC(C(=O)NCCS(=O)(=O)N3CCN(c4ccccc4)CC3)CC2=O)cc1 (configuration not stated) | inconclusive [rising, single point] | –
CCc1ccc(/C=N/NC(=O)C(=O)NCCCN2CCOCC2)cc1 | inconclusive [rising, single point] | –
COc1cccc(C(NC(C)=O)c2nc(-c3ccc4ccccc4c3)cs2)c1 (configuration not stated) | – | inconclusive: -37.3%
CCC(C)C(NC(=O)C(C)NC(=O)CNC(=O)OC(C)(C)C)C(N)=O (configuration not stated) | inactive | –
Cc1nc2cc(OC3(C)CCN(Cc4ccc(OC(F)(F)F)cc4)C3)ccc2s1 (configuration not stated) | inconclusive [cytotoxic, single point] | –
NS(=O)(=O)c1ccc(-n2nncc2-c2ccco2)cc1 | – | inconclusive: 35.7%
CCCCC[C@H](C)N1C[C@@H](COCc2ccccc2)Oc2cc(N3CCC[C@H]3C(N)=O)ccc2S1(=O)=O | inconclusive [cytotoxic, single point] | –
COc1ccc2c(c1)[N+](C)(C)C(C)(C)C=C2C | inactive | –
COc1ccc(C(CC(=O)Nc2ccc(Cl)cc2F)NC(=O)C(F)(F)F)cc1 (configuration not stated) | inconclusive [cytotoxic, single point] | –
COc1cccc(CNC(=O)CNC(=S)N(Cc2ccccc2)Cc2ccccc2F)c1 | inactive | –
COc1ccc(NC(=O)CSc2nnc(-c3cccs3)n2N)c(OC)c1 | inactive | –
O=C(Nc1ccccc1N1CCOCC1)c1ccc(N2CCOCC2)c([N+](=O)[O-])c1 | inconclusive [rising, full curve, poor fit] | –
CN1/C(=C/c2cccc[n+]2C)Sc2ccccc21 | inconclusive [cytotoxic, partial curve] | –

— PubChem BioAssay AID686970 (National Center for Advancing Translational Sciences (NCATS), 2013)
